Reference: PMC4336329 (PLoS ONE, 2015)
Screen size: about 310,000 compounds; about 14,000 (4.5%) showed an effect of 50% or more. The effect is printed as a negative number. This is one part of the list.

molecular target: human ether-à-go-go-related gene (hERG) potassium channel (human, UniProt Q12809); assay: primary screen, population patch clamp on CHO cells stably expressing hERG
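Note: peak tail current of the secondary pulse compared with the same well before compound.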

human ether-à-go-go-related gene (hERG) potassium channel, sequence (Q12809 whole entry, looked up): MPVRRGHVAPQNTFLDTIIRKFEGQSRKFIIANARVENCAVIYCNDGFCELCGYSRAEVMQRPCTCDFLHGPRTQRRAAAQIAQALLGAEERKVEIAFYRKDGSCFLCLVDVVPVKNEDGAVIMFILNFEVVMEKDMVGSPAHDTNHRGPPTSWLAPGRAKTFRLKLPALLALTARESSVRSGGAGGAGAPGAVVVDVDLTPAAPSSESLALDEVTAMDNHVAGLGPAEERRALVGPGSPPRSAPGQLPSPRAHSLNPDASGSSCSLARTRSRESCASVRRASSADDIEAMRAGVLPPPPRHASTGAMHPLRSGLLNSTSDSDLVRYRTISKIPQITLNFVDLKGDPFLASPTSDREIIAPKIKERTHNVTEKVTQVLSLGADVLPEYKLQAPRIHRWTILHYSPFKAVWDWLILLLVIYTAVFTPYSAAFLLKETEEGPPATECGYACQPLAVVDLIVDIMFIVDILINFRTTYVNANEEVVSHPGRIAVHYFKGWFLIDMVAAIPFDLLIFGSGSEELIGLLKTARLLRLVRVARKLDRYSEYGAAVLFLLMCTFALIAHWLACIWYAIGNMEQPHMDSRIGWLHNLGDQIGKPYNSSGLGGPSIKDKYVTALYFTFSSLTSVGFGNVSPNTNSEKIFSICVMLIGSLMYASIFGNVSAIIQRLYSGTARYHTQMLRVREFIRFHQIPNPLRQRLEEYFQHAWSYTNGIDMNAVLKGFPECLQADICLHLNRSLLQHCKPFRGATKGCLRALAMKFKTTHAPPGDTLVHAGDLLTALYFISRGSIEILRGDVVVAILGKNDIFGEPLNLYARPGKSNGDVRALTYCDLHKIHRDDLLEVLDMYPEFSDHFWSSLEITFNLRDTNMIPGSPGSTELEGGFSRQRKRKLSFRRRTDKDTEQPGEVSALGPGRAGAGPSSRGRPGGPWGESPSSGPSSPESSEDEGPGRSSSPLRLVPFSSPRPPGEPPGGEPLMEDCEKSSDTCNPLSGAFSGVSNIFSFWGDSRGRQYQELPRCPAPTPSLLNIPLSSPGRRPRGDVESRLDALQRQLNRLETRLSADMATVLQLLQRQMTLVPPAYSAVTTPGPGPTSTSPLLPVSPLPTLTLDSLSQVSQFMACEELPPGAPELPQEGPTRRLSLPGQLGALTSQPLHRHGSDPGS

Row | Structure (SMILES) | hERG current change (%, negative = inhibition) at 10uM [%]
1 | O=C(Nc1nc2ccccc2[nH]1)c1ccc([N+](=O)[O-])cc1 | 41.2
2 | Cc1ccccc1N1CCN(C2CCCN(C(=O)COc3ccccc3)C2)CC1 (stereo not shown) | -62.7
3 | O=[N+]([O-])c1cccc(S(=O)(=O)N2CCN(c3ccccn3)CC2)c1 | 4.57
4 | COc1ccccc1NC(=O)c1ccc(C)s1 | 8.87
5 | COc1ccc(-n2ncc3c(SCC(=O)N4CCN(c5ccccc5OC)CC4)ncnc32)cc1 | -6.29
6 | CCn1c(=O)cc(OCC(=O)N2CCN(c3ccc(F)cc3)CC2)c2ccccc21 | -69.8
7 | Cn1nccc1C(=O)NC1CC(C)(C)Cc2c1cnn2-c1ccc(F)cc1 (stereo not shown) | -61.4
8 | O=C(COC(=O)c1ccncc1)Nc1cc(Cl)c(Cl)cc1Cl | -2.04
9 | Fc1ccc(-c2csc(-c3ccncc3)n2)cc1 | -4.19
10 | CC(=O)O[C@H]1C2OC(=O)C(C)=C2[C@@H]2OC(=O)[C@]3(CCC4OC41C)OC23 (stereo partly shown) | 18.2
11 | COC(=O)c1sccc1NC(=O)c1ccc(C)o1 | 9.34
12 | CN(C)S(=O)(=O)NCC1CCCN(Cc2ccc(-c3ccccc3)cc2)C1 (stereo not shown) | -50.8
13 | Cc1sc(NC(=O)CSc2nnc(-c3ccc(F)cc3)o2)c(C#N)c1C | 10
14 | Cc1ccc(CNc2ccc(Cl)cc2[N+](=O)[O-])cc1 | -4.23
15 | Cc1ccc(-c2nc3ncccc3o2)cc1NC(=O)C(C)(C)C | 16.6
16 | Cc1ccc(-c2noc(C3CCN(S(=O)(=O)c4ccc5c(c4)OCCO5)CC3)n2)o1 | 4.19
17 | CCN1CCN(c2ccc(NC(=O)c3cccc(N4CCCC4=O)c3)cc2)CC1 | 23.9
18 | O=C(/C=C/c1cccs1)Nc1nncs1 | 18
19 | O=c1cc(NC2CCCCC2)[nH]c(=O)[nH]1 | 7.02
20 | CCCn1ncc(CN2CCC(n3nccc3NC(=O)CCc3ccccc3)CC2)c1C | -26.2
21 | O=C(Nc1nc2ccc(SC(F)F)cc2s1)c1ccc(NS(=O)(=O)c2ccc(F)c(F)c2)cc1 | -8.03
22 | Cn1cnnc1SCC(=O)Nc1ccc(OC(F)F)cc1 | 8.89

Row | Structure (SMILES) | hERG current change (%, negative = inhibition) at 10uM [%]
23 | CCC1Oc2ccccc2N(CC(=O)NCCCN2CCCCC2CC)C1=O (stereo not shown) | -3.34
24 | O=C(C1CCC(CNc2c(N3CCOCC3)c(=O)c2=O)CC1)N1CCN(c2ccccc2)CC1 (stereo not shown) | 23.8
25 | CCN1CCN(CCOCCOc2ccccc2)CC1.O=C(O)C(=O)O | 10.8
26 | OCC1(CCc2ccccc2)CCCN(CCCC(F)(F)F)C1 (stereo not shown) | -51.7
27 | CC1CC(C(F)(F)C(F)(F)F)n2nc(C(=O)O)cc2N1 (stereo not shown) | -1.95
28 | Cc1nc2ccccc2n1C(C)c1ccccc1 (stereo not shown) | 7.77
29 | C=CCc1cccc2cc(C(=O)N3CCOCC3)c(=O)oc12 | -1.37
30 | OCC[C@@H]1C[C@H](O)[C@@H](O)[C@@]2(CCCCO2)O1 | 4.62
31 | CCN(CC)S(=O)(=O)c1ccc2c(c1)N(CC(=O)N(CCc1ccncc1)C(C)C)C(=O)CO2 | -53.3
32 | Brc1ccc2c(c1)C(c1cccnc1)=NNC(c1cccs1)=N2 | -43.6
33 | O=C(/C=C/c1ccc(O)c(O)c1)c1ccccc1O | 7.58
34 | O=C(Cn1cnc2scc(-c3ccc(Cl)cc3)c2c1=O)N1CCOCC1 | -8.35
35 | CCOc1ccccc1NC(=O)NNS(=O)(=O)c1ccc([N+](=O)[O-])cc1 | 5.17
36 | CCOC(=O)N1CCN(CC(O)COc2c(C)cccc2C)CC1.Cl (stereo not shown) | -15.7
37 | O=C(Nc1cccc(Cl)c1N1CCCC1)c1cc2ccccc2o1 | 11.9
38 | CN1CCN(C2=NC(=O)/C(=C/c3cn[nH]c3-c3ccccc3)S2)CC1 | 12.7
39 | COc1ccc(C2NC(=S)NC3=C2CCc2cc(OC)ccc23)cc1 (stereo not shown) | 19.9
40 | NS(=O)(=O)c1ccc(CNC(=O)C(c2ccccc2)c2ccccc2)cc1 | 2.89
41 | CN1/C(=C\C=C2/SC(=S)N(CC(=O)O)C2=O)C(C)(C)c2ccccc21 | 15.1
42 | COc1cccc(-n2nc(C(=O)N3CCC4(CC3)OCCO4)c3ccccc3c2=O)c1 | -7.14
43 | COc1ccc(Cn2c(SCc3ccc(C)cc3)nc3cc(OC)c(OC)cc3c2=N)cc1Cl | 14.6
44 | COc1ccc(/C(C)=N/NC(=O)CNC(=O)c2ccco2)cc1 | 6.26

Row | Structure (SMILES) | hERG current change (%, negative = inhibition) at 10uM [%]
45 | CCOc1ccc(N(C)S(=O)(=O)c2cc(-c3cc(C)no3)ccc2C)cc1 | 8.58
46 | Cc1cc2occ(CC(=O)N(C)CC(=O)Nc3ccccc3Cl)c2cc1C | -3.06
47 | CN1CCN(C(=O)c2ccccc2NC(=O)c2ccccc2Br)CC1 | -7.98
48 | C=C1CCN(C(C(=O)OC)C(C)C)S(=O)(=O)c2ccc(F)cc21 (stereo not shown) | -0.85
49 | Cc1ccnc(SCc2cc(=O)c(OC(=O)c3cccs3)co2)n1 | -12.7
50 | CC1CCN(S(=O)(=O)c2cccc(C(=O)NNC(=O)c3ccco3)c2)CC1 | -1.07
51 | CCc1ccccc1NC(=S)N(Cc1ccc(OC)cc1)CC1CCC(C(=O)O)CC1 (stereo not shown) | 15
52 | COc1ccc(/C=N/NC(=O)c2nc(-c3ccccc3)n(-c3ccccc3)n2)cc1 | 14.7
53 | O=C(NCc1cccc(C(F)(F)F)c1)C1CC(c2cccc(F)c2)=NO1 (stereo not shown) | -10.5
54 | CCOc1ccc(CN2CCN(C(=O)Cc3ccccc3)CC2)cc1.O=C(O)C(=O)O | -44.1
55 | CCCCN(C(=O)c1cccc(S(=O)(=O)N(C)c2ccc(C)cc2)c1)c1c(N)n(CCCC)c(=O)[nH]c1=O | -2.97
56 | CN1CCN(CP(=O)(N2CCOCC2)N2CCOCC2)CC1 | 1.13
57 | CCN(CC)S(=O)(=O)c1nnc(NC(=O)c2ccco2)s1 | 15.5
58 | COc1cc([N+](=O)[O-])ccc1N/C=C/C(=O)c1cccs1 | 4.7
59 | COC(=O)C1CCN(Cc2ccc(C)cc2)CC1 | -22.2
60 | Cn1nnnc1SCC(=O)NC1CCCC1 | 12.6
61 | CCCc1nc2ccccc2c(=O)n1-c1ccc(O)cc1 | 13.4
62 | Cn1nc(C(F)(F)F)c(/C=N/OC(=O)c2ccccc2Cl)c1SCc1ccc(Cl)cc1 | -3.5
63 | CCN(CC)CCNC(=O)c1c(O)c2ccccc2n(Cc2ccccc2)c1=O.Cl | -63
64 | O=C1C2C3C=CC(C3)C2C(=O)N1CCN1CCN(S(=O)(=O)/C=C/c2ccccc2)CC1 (stereo not shown) | -27.9
65 | CN(Cc1n[nH]c(=S)n1C)S(=O)(=O)c1ccccc1 | 14.5
66 | COc1ccc(O)c(/C=N/NC(=O)CCC(=O)Nc2ccc(C)cc2)c1 | 12.3

Row | Structure (SMILES) | hERG current change (%, negative = inhibition) at 10uM [%]
67 | CC(=O)Nc1nc(SCC(=O)NCc2ccc(F)cc2)[nH]c(=O)c1NC(=O)c1cccs1 | 13.7
68 | Cc1ccccc1-c1nnc(-c2ccc(Cl)cc2)o1 | 7.36
69 | Cc1ccc(-c2nn(-c3ccccc3)cc2CSC(=N)N)cc1.Cl | -10.2
70 | COc1ccc(NS(=O)(=O)c2cccc3nsnc23)cc1OC | 2.86
71 | CN(CC(=O)OCC(=O)NCc1ccccc1)S(=O)(=O)c1ccc(F)cc1 | -13.7
72 | CN1CCN(C2=C(Cl)C(=O)N(CCc3ccccc3)C2=O)CC1 | 0.967
73 | CC(C)CCOc1ccc(/C=N/N2C(=O)CSC2=S)cc1 | -3.94
74 | CC(=O)c1ccc(OCC(O)CN2CCc3ccccc3C2)cc1.Cl (stereo not shown) | -41.9
75 | CCCCN(C(=O)c1cccs1)C1CCS(=O)(=O)C1 (stereo not shown) | -12.6
76 | CCOC(=O)c1c(C)n(CCNC(C)=O)c2ccc(O)cc12 | 17.7
77 | CC(=O)c1cc2c(cc1NC(=O)CSc1nc3ccccc3o1)OCO2 | 3.8
78 | COc1cc2c(cc1OC)CN(C(=O)CCN1C(=O)C3CCCCC3C1=O)CC2 (stereo not shown) | 36.4
79 | CC(=O)N(Cc1ccc2c(c1)OCO2)C1CC(=O)N(CCc2ccccc2)C1=O (stereo not shown) | -10.9
80 | CCOC(=O)C1CCN(C(=O)Cn2cccc2C(=O)c2ccccc2)CC1 | 2.64
81 | C1CN(CC2CCN(c3nc4nonc4nc3N3CCSCC3)CC2)CCO1 | -3.83
82 | CCOc1ccccc1NC(=O)COC(=O)C1CC1 | 3.42
83 | CCc1ccc2nc(N3C(=O)c4oc5ccccc5c(=O)c4C3c3ccc(OC)c(OC)c3)sc2c1 (stereo not shown) | 18
84 | Cc1ccc(NC(=O)C(NS(=O)(=O)c2cccc3nsnc23)C(C)C)nc1 (stereo not shown) | 0.927
85 | CC(C(=O)OCC(=O)c1cccc([N+](=O)[O-])c1)N1C(=O)C2C3CCC(C3)C2C1=O (stereo not shown) | 2.55
86 | CCOC(=O)c1c(C)oc2c1C(=O)c1ccccc1C2=O | -0.394
87 | N#Cc1ccccc1NC(=O)Nc1ccccc1 | 17.4
88 | COc1ccc(-c2nnc(SCc3nc4ccccc4c(=O)[nH]3)o2)cc1 | -17.8
